{"source": "PubChem BioAssay AID588579", "about": "(National Center for Advancing Translational Sciences (NCATS), 2011)", "note": "Hit rate of the full screen: of about 400,000 compounds, about 2,200 (0.55%) were called active. Inconclusive means that the source gave no clear call. Such entries were picked first, then a sample of the others. The call rests on the fitted dose curve; in most records, active means well fitted inhibition curve with a large enough effect; inconclusive means small, poorly fitted or top-dose-only effect, or another doubt; inactive means no such curve, though single readings can be large or run the other way. Potencies beside an inconclusive call are fits to weak or partial responses and may not hold up. On the % scale 0 is the no-effect control and ±100 the full control effect; potency means the concentration at half of the fitted maximal effect; tags describe the fitted curve by direction and shape.", "data": [{"target": "DNA polymerase kappa (Homo sapiens) (UniProt Q9UBT6)", "sequence (Q9UBT6 whole entry, looked up)": "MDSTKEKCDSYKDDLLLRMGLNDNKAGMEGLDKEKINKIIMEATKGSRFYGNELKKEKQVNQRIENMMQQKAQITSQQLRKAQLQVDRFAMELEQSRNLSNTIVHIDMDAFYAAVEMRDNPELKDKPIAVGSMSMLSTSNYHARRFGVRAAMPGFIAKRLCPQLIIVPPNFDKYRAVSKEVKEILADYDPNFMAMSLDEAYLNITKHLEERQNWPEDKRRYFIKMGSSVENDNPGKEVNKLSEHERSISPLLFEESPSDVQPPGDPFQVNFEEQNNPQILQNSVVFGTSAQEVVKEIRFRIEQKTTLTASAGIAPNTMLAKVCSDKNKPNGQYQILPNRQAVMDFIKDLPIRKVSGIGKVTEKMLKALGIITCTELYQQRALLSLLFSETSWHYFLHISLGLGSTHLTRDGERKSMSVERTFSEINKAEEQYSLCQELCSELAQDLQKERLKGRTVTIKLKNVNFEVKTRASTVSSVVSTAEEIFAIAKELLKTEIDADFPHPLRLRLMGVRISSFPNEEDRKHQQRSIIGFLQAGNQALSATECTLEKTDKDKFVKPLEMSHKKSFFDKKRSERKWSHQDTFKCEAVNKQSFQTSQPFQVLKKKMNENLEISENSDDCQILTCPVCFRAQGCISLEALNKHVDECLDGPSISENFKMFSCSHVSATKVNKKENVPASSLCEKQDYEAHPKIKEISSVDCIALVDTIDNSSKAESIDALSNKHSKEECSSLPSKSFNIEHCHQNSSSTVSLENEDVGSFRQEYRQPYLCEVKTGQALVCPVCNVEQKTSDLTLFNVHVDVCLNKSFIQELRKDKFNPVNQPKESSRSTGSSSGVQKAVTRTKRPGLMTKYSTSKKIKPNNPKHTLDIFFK", "test": "qHTS for Inhibitors of Polymerase Kappa", "settings": "purified Pol kappa, fluorescent DNA synthesis assay, 10 min; series mostly up to 107 µM; activity, negative = inhibition: at the top concentration", "outline": "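50 nM final substrate added after 15 min RT preincubation of 10 nM Pol kappa with compound; fluorescence read at 0 and 10 min.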", "values": [{"compound": "Cc1cccc(C2=NN(c3ccccc3)[C@H](CO)[C@H]2c2ccc(Cl)cc2)c1", "Potency": "inconclusive: 39.8 µM [inhibitor, partial curve, poor fit]"}, {"compound": "Cc1c(OC(C)C(=O)NC(Cc2c[nH]c3ccc(O)cc23)C(=O)O)ccc2c1oc(=O)c1ccccc12", "note": "(stereo not drawn)", "Potency": "inconclusive: 79.4 µM [inhibitor, single point]"}, {"compound": "COc1ccccc1-c1cncnc1NCc1cnc(C)cn1", "activity, negative = inhibition": "inactive: 1.31% [at 60.1 µM]"}, {"compound": "O=C(CCc1ccc(O)cc1)c1c(O)cc(O)cc1O", "Potency": "inconclusive: 35.5 µM [inhibitor, partial curve, poor fit]"}, {"compound": "CCOc1ccc(CNCCCSc2ncccn2)cc1", "activity, negative = inhibition": "inactive: 10.5%"}, {"compound": "CCOC(=O)C1=C(C)N=c2s/c(=C\\c3ccc(OCC(=O)O)cc3)c(=O)n2C1c1ccc(Cl)cc1", "note": "(stereo not drawn)", "Potency": "active: 50.1 µM"}, {"compound": "CN=c1scc(-c2ccccc2F)n1/N=C/c1ccc[nH]1", "activity, negative = inhibition": "inactive: -18.6%"}, {"compound": "COCCNC(=O)C1CC(c2ccc(F)cc2)=NO1", "note": "(stereo not drawn)", "activity, negative = inhibition": "inactive: -3.84%"}, {"compound": "Cc1cc2[nH]c3c4ccccc4nc(C)c3c2cc1C", "Potency": "active: 79.4 µM"}, {"compound": "COc1cccc(C(=O)n2nc(-c3ccco3)nc2NCc2cccs2)c1", "activity, negative = inhibition": "inactive: 7.53%"}, {"compound": "COc1ccc(OC)c(CNC(=O)C2COc3ccccc3C2)c1", "note": "(stereo not drawn)", "activity, negative = inhibition": "inactive: 0.237% [at 60.1 µM]"}, {"compound": "Cc1cc(O)c(S(=O)(=O)c2ccccc2)c(C)c1NS(=O)(=O)c1ccccc1", "Potency": "inconclusive: 100 µM [inhibitor, partial curve, poor fit]"}, {"compound": "O=C(Nc1nc(-c2ccco2)c(-c2ccco2)s1)c1c(F)cccc1Cl", "Potency": "inconclusive: 79.4 µM [inhibitor, single point]"}, {"compound": "COCCCNc1cc(C)nc2ccccc12", "activity, negative = inhibition": "inactive: 1.54%"}, {"compound": "O=C(NC(NC1CCS(=O)(=O)C1)C(=O)c1cccs1)c1ccccc1", "note": "(stereo not drawn)", "activity, negative = inhibition": "inactive: -17.7%"}, {"compound": "O=C(NNS(=O)(=O)c1ccc([N+](=O)[O-])cc1)C(=O)Nc1cccc(C(=O)O)c1", "Potency": "inconclusive: 89.1 µM [inhibitor, single point]"}, {"compound": "c1ccc2c(c1)OCC(c1nn3c(Cn4nnc5ccccc54)nnc3s1)O2", "note": "(stereo not drawn)", "Potency": "inconclusive: 89.1 µM [inhibitor, single point]"}, {"compound": "CCCN1CNc2c(c(=O)[nH]c(=S)n2CCc2ccccc2OC)C1", "activity, negative = inhibition": "inactive: 4.62%"}, {"compound": "Cc1[nH]c2ccccc2c1/C=N/NC(=O)c1cc(-c2cccs2)[nH]n1", "Potency": "inconclusive: 70.8 µM [inhibitor, partial curve, poor fit]"}, {"compound": "COc1ccc(NC(=O)c2ccc(NCCN3C(=O)CCC3=O)c([N+](=O)[O-])c2)cc1", "Potency": "inconclusive: 100 µM [inhibitor, single point]"}, {"compound": "O=C(CSc1nnc(-c2cccc(S(=O)(=O)N3CCCC3)c2)n1-c1ccccc1)Nc1ccc(C(=O)O)cc1", "Potency": "inconclusive: 89.1 µM [inhibitor, single point]"}, {"compound": "CN1CCN(CCCN2c3ccccc3Sc3ccc(C(F)(F)F)cc32)CC1", "Potency": "inconclusive: 18.9 µM [inhibitor, partial curve, poor fit]"}, {"compound": "CC(=O)c1ccccc1NS(C)(=O)=O", "activity, negative = inhibition": "inactive: -2.31%"}, {"compound": "COc1cccc(CNc2nc(SC)ncc2CO)c1", "Potency": "inconclusive: 89.1 µM [inhibitor, single point]"}, {"compound": "COc1cc(OC)cc(C(=O)N[C@H](C(=O)OCC(=O)c2c[nH]c3ccccc23)C(C)C)c1", "Potency": "inconclusive: 89.1 µM [inhibitor, partial curve, poor fit]"}, {"compound": "CCOc1ccc(-c2nc3scc(-c4cccs4)c3c(=O)[nH]2)cc1", "activity, negative = inhibition": "inactive: -0.809%"}, {"compound": "O=C(NC(NC(=O)c1ccccc1)c1ccccc1)c1ccccc1", "activity, negative = inhibition": "inactive: -15.6%"}, {"compound": "O=c1[nH]c(-c2ccccc2)nc(CN2CCCCC2)c1O", "Potency": "inconclusive: 50.1 µM [inhibitor, partial curve, poor fit]"}, {"compound": "CC(C)CCOc1ccc(C(=O)Nc2sc3c(c2C#N)CCCCC3)cc1", "Potency": "active: 89.1 µM"}, {"compound": "O=C1c2ccc(O)c(O)c2C(=O)c2c(O)ccc(O)c21", "Potency": "active: 2.82 µM"}, {"compound": "Cc1[nH]c2ccccc2c1N=Nc1ccccc1C(=O)O", "Potency": "inconclusive: 89.1 µM [inhibitor, single point]"}, {"compound": "COc1ccc2cc(C(=O)NCc3ccco3)c(=Nc3ccc(C(=O)O)cc3)oc2c1", "activity, negative = inhibition": "inactive: -4.69%"}, {"compound": "CO[C@H]1/C=C\\O[C@@]2(C)Oc3c(C)c(O)c4c(O)c(c(C=NN5CCN(C6CCCC6)CC5)c(O)c4c3C2=O)NC(=O)C(C)=CC=C[C@H](C)[C@H](O)[C@@H](C)[C@@H](O)[C@@H](C)[C@H](OC(C)=O)[C@H]1C", "activity, negative = inhibition": "inactive: -14.8%"}, {"compound": "CC(=O)Oc1ccc(C(=O)Nc2cccc(C(=O)Nc3ccccc3C(=O)O)c2)cc1", "activity, negative = inhibition": "inactive: -7.13%"}, {"compound": "O=C(C[N+]12CCCc3cccc(c31)CCC2)c1ccc2ccc3cccc4ccc1c2c34", "activity, negative = inhibition": "inactive: -11.4%"}, {"compound": "COP(=O)(OC)c1ccc(NCc2cc(O)ccc2O)cc1", "Potency": "inconclusive: 17.8 µM [inhibitor, full curve, poor fit]"}, {"compound": "COC(=O)CC[C@H](N)C(=O)O", "activity, negative = inhibition": "inactive: -4.01% [at 19.4 µM]"}, {"compound": "Cc1nn(CCCC(=O)NCc2ccccc2)c(=O)c2nn(-c3ccccc3)c(C)c12", "Potency": "inactive"}, {"compound": "COc1ncc2nc(-c3cc(F)cc(F)c3)c(=O)n(CCc3ccccc3)c2n1", "activity, negative = inhibition": "inactive: -18.4% [at 60.1 µM]"}, {"compound": "Cc1c(Cl)cccc1NC(=O)c1cnc2sc(N3CCCC3)nn2c1=O", "activity, negative = inhibition": "inactive: -18.6%"}, {"compound": "CCc1ccc(OCC(=O)N/N=C\\c2ccco2)c([N+](=O)[O-])c1", "Potency": "active: 79.4 µM"}, {"compound": "CCOC(=O)Cc1cc(=O)n2[nH]c(-c3ccccc3)c(-c3ccccc3)c2n1", "Potency": "active: 79.4 µM"}, {"compound": "C=CC(C1=CC(=O)C(OC)=CC1=O)c1ccc(OC)cc1", "note": "(stereo not drawn)", "Potency": "inconclusive: 20 µM [inhibitor, single point]"}, {"compound": "Cc1c(Cl)cccc1NC(=O)CCn1c(=O)c2cccn2c2ccccc21", "activity, negative = inhibition": "inactive: 1.71%"}, {"compound": "N[C@@](C(=O)O)(c1ccc(P(=O)(O)O)cc1)C1CC1", "activity, negative = inhibition": "inactive: -5.2% [at 19.4 µM]"}, {"compound": "O=Cc1ccc2oc3nc4n(c(=O)c3c(=O)c2c1)CCCS4", "Potency": "active: 20 µM"}, {"compound": "CC1CCCCC1NC(=O)COC(=O)c1ccc(S(=O)(=O)NCc2ccco2)cc1", "note": "(stereo not drawn)", "Potency": "inconclusive: 89.1 µM [inhibitor, single point]"}, {"compound": "Cc1cc[n+](-c2[nH]c(=O)sc2/C=N/N=C(\\[O-])c2ccncc2)cc1", "Potency": "inconclusive: 89.1 µM [inhibitor, single point]"}]}]}
